Laboratory results reported in PubChem BioAssay AID1117361 (Southern Research Institute, 2015).
A number of entries come with more than one value. They are shown here; other results are not. The source may hold further records. Values that stand side by side are repeated measurements in other runs, samples, wells, individuals or studies. Marks in square brackets tell the records apart. Letters count within one entry.

Biological target: Protein Tat (Human immunodeficiency virus type 1 group M subtype B (isolate HXB2)) (UniProt P04608)
Chain of UniProt P04608 (P04608 whole entry, looked up): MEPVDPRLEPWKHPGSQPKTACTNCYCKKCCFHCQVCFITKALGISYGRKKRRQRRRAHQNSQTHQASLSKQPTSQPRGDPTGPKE
Assay: HIV-1 Tat–TAR interaction blockers – biochemical, fluorescence polarization, FAM-labeled TAR RNA, counter-screen for Vif-APOBEC3G degradation inhibitor project, dose response (AID 1117361)
Conditions: Tat-TAR RNA binding

IC50: 2.08 µM [sample A] and 99 µM [sample B]
SMILES: Clc1ccccc1CSc1nnc(-c2ccco2)c(-c2ccco2)n1
